# According to the supplement of paper PMC10037445:
# Whole data set: some 2,900 compounds, median “NF-kB SEAP reporter activity, fold change vs agonist alone” near 0.99, cut for the highest 2% near 2.6. This is one part of the list.
# Legend:
# RAW-Dual [1] = experiment: NF-kB SEAP reporter activity, fold change vs agonist alone; higher = enhanced NF-kB activity; conditions: library stock concentration (final ~1000-fold dilution): 10 mM
# Outline: (§1)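 RAW-Dual macrophages (50,000 cells/well in DMEM, 384-well plates) received 50 nL of library stock by pin tool, then a PRR agonist 1 h later, and were kept at 37 °C, 5% CO2. After 20 hours, supernatant was read for IRF by QuantiLuc luminescence and for NF-κB by QuantiBlue absorbance at 620 nm. Reporter activity is fold change over agonist-alone wells. Cytotoxic wells had IncuCyte confluency below 70% of agonist controls in both mask sets.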
# RAW-Dual [2] = experiment: NF-kB SEAP reporter activity, fold change vs agonist alone; cytotoxicity flag (confluency mask): not cytotoxic; higher = enhanced NF-kB activity
# Outline: as §1
# RAW-Dual [3] = experiment: NF-kB SEAP reporter activity, fold change vs agonist alone; cytotoxicity flag (confluency mask): cytotoxic (confluency <70% of control); higher = enhanced NF-kB activity
# Outline: as §1
# [4] = cytotoxicity flag (confluency mask): not cytotoxic, agonist: Imiquimod (TLR7) […]
# [5] = cytotoxicity flag (confluency mask): not cytotoxic, agonist: MPLA (TLR4) […]
# [6] = agonist: ODN 1826 (TLR9) 0.5 ug/mL
# [7] = agonist: Pam2CSK4 (TLR2/6) 0.1 ug/mL
# [8] = agonist: Pam3CSK4 (TLR2/1) 0.1 ug/mL
# [9] = cytotoxicity flag (confluency mask): cytotoxic (confluency <70% of control), agonist: Imiquimod (TLR7) […]
# [10] = cytotoxicity flag (confluency mask): cytotoxic (confluency <70% of control), agonist: MPLA (TLR4) […]
compound,measurement,setting,value
O=C1c2c(O)cc(O)cc2OC(c2ccc(O)c(O)c2)C1O (stereo not drawn),NF-kB SEAP reporter activity,RAW-Dual [1]; [4],0.89
same,NF-kB SEAP reporter activity,RAW-Dual [1]; [5],0.902
O=C1c2c(O)cc(O)cc2OC(c2ccc(O)c(O)c2)C1O (stereo not drawn) (library stock concentration (final ~1000-fold dilution): 10 mM),NF-kB SEAP reporter activity,RAW-Dual [2]; agonist: LPS (TLR4) 0.1 ug/mL,1.11
same,NF-kB SEAP reporter activity,RAW-Dual [2]; [6],0.966
same,NF-kB SEAP reporter activity,RAW-Dual [2]; [7],0.869
same,NF-kB SEAP reporter activity,RAW-Dual [2]; [8],0.93
FC(F)(F)c1ccc(/C=C/c2nc(COc3ccc(CCCCn4ccnn4)cc3)co2)cc1,NF-kB SEAP reporter activity,RAW-Dual [1]; [4],0.971
same,NF-kB SEAP reporter activity,RAW-Dual [1]; [5],1.33
FC(F)(F)c1ccc(/C=C/c2nc(COc3ccc(CCCCn4ccnn4)cc3)co2)cc1 (library stock concentration (final ~1000-fold dilution): 10 mM),NF-kB SEAP reporter activity,RAW-Dual [2]; agonist: LPS (TLR4) 0.1 ug/mL,1.29
same,NF-kB SEAP reporter activity,RAW-Dual [2]; [6],1.04
same,NF-kB SEAP reporter activity,RAW-Dual [2]; [7],0.706
same,NF-kB SEAP reporter activity,RAW-Dual [2]; [8],0.878
COc1cc2c(cc1OC)C1C(=O)c3ccc4c(c3OC1CO2)C=CC(C)(C)O4 (stereo not drawn),NF-kB SEAP reporter activity,RAW-Dual [1]; [4],0.738
same,NF-kB SEAP reporter activity,RAW-Dual [1]; [5],1.28
COc1cc2c(cc1OC)C1C(=O)c3ccc4c(c3OC1CO2)C=CC(C)(C)O4 (stereo not drawn) (library stock concentration (final ~1000-fold dilution): 10 mM),NF-kB SEAP reporter activity,RAW-Dual [2]; agonist: LPS (TLR4) 0.1 ug/mL,1.9
same,NF-kB SEAP reporter activity,RAW-Dual [2]; [6],0.824
same,NF-kB SEAP reporter activity,RAW-Dual [2]; [7],0.347
same,NF-kB SEAP reporter activity,RAW-Dual [2]; [8],0.584
C#CCN(C)CCCOc1ccc(Cl)cc1Cl.Cl,NF-kB SEAP reporter activity,RAW-Dual [1]; [4],1.28
same,NF-kB SEAP reporter activity,RAW-Dual [1]; [5],1.14
C#CCN(C)CCCOc1ccc(Cl)cc1Cl.Cl (library stock concentration (final ~1000-fold dilution): 10 mM),NF-kB SEAP reporter activity,RAW-Dual [2]; agonist: LPS (TLR4) 0.1 ug/mL,0.954
same,NF-kB SEAP reporter activity,RAW-Dual [2]; [6],0.939
same,NF-kB SEAP reporter activity,RAW-Dual [2]; [7],0.906
same,NF-kB SEAP reporter activity,RAW-Dual [2]; [8],0.907
CC(Oc1cc(-c2cnn(C3CCNCC3)c2)cnc1N)c1c(Cl)ccc(F)c1Cl (stereo not drawn),NF-kB SEAP reporter activity,RAW-Dual [1]; [9],0.634
same,NF-kB SEAP reporter activity,RAW-Dual [1]; [10],1.05
same,NF-kB SEAP reporter activity,RAW-Dual [1]; [4],0.548
same,NF-kB SEAP reporter activity,RAW-Dual [1]; [5],0.515
CC(Oc1cc(-c2cnn(C3CCNCC3)c2)cnc1N)c1c(Cl)ccc(F)c1Cl (stereo not drawn) (library stock concentration (final ~1000-fold dilution): 10 mM),NF-kB SEAP reporter activity,RAW-Dual [2]; agonist: LPS (TLR4) 0.1 ug/mL,0.223
same,NF-kB SEAP reporter activity,RAW-Dual [2]; [6],0.217
same,NF-kB SEAP reporter activity,RAW-Dual [2]; [7],0.144
same,NF-kB SEAP reporter activity,RAW-Dual [2]; [8],0.287
same,NF-kB SEAP reporter activity,RAW-Dual [3]; agonist: LPS (TLR4) 0.1 ug/mL,0.721
same,NF-kB SEAP reporter activity,RAW-Dual [3]; [6],0.25
same,NF-kB SEAP reporter activity,RAW-Dual [3]; [7],0.376
same,NF-kB SEAP reporter activity,RAW-Dual [3]; [8],0.238
O=C(CCCCCCC(=O)N/N=C/c1ccc(N(c2ccccc2)c2ccccc2)cc1)NO (library stock concentration (final ~1000-fold dilution): 10 mM),NF-kB SEAP reporter activity,RAW-Dual [3]; agonist: LPS (TLR4) 0.1 ug/mL,5.47
same,NF-kB SEAP reporter activity,RAW-Dual [3]; [6],2.71
same,NF-kB SEAP reporter activity,RAW-Dual [3]; [7],1.09
same,NF-kB SEAP reporter activity,RAW-Dual [3]; [8],1.61
O=C(CCCCCCC(=O)N/N=C/c1ccc(N(c2ccccc2)c2ccccc2)cc1)NO,NF-kB SEAP reporter activity,RAW-Dual [1]; [9],1.77
same,NF-kB SEAP reporter activity,RAW-Dual [1]; [10],2.3
O.O=C(O)c1ncccc1[O-].O=C([O-])c1ncccc1[O-].[H+].[O]=[V][OH],NF-kB SEAP reporter activity,RAW-Dual [1]; [4],1.41
same,NF-kB SEAP reporter activity,RAW-Dual [1]; [5],1.15
O.O=C(O)c1ncccc1[O-].O=C([O-])c1ncccc1[O-].[H+].[O]=[V][OH] (library stock concentration (final ~1000-fold dilution): 10 mM),NF-kB SEAP reporter activity,RAW-Dual [2]; agonist: LPS (TLR4) 0.1 ug/mL,1.32
same,NF-kB SEAP reporter activity,RAW-Dual [2]; [6],2.4
same,NF-kB SEAP reporter activity,RAW-Dual [2]; [7],1.24
same,NF-kB SEAP reporter activity,RAW-Dual [2]; [8],1.31
